# ± gives the standard deviation. This is a selection; strong and weak results do not stand in their true shares.
# Test system: MIWI (PIWIL1) piRISC loaded with piRNA #1 (30 nt)
# Test: pre-steady-state target cleavage rate (min^-1); MIWI and MILI are mouse PIWI proteins and EfPiwi is from a freshwater sponge; tags in brackets are library labels; higher = faster piRNA-guided slicing of the target
# Details: guide: piRNA #1 5'p-UGAGGUAGUAGGUUGUAUAGUAUCCAGAGG; auxiliary factor: 500 nM mouse GTSF1
# Outline: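 Three pooled Cleave-'n-Seq trials supplied the data, with k3 capped at 0.0001 min^-1. In each, […] transcribed, DNA-blocked target RNA library and 1 nM active affinity-purified piRISC with one synthetic guide reacted in HEPES–potassium acetate buffer at 33 °C for 0–8 or 0–960 min, with or without 500 nM GTSF1 partner protein. Uncleaved targets were sequenced and normalised to depth and to weakly complementary targets. A burst-and-steady-state fit provided the pre-steady-state cleavage rate.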
# 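Note: 1 nM active piRISC with 0.1 nM target library at 33 °C single turnover.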
row,Sequence,pre-steady-state target cleavage rate
1,GCUCUGGAUACUAUACAACCUACUACCUCC [g2:g29:cont:t1C],2 ± 0.13
2,GGAGACCUUACUAUACAACCUACUACCUAA,1.49 ± 0.11
3,GGAGAGGAAACUAUAGAACCUACUACCUCA,1.02 ± 0.057
4,GGAGACCAUACUAUACAACCUACUAACCUCA,1.26 ± 0.075
5,GGAGACGAUACUAUACAACCAACUACCACA,0.147 ± 0.013
6,GGUCUGGAUACUAUACAAACCUACUACCUCA,0.00621 ± 0.0028
7,GGAGACCUAUGAUAUGAUCCUACUACGUCA,< 0.0001
8,GGAGACCAUACUAAACAACCAACUACCUCA,0.0501 ± 0.0091
9,GGAGUGGAUAGUUUACAACCUACUACCUCA,0.663 ± 0.04
10,GGAGAGGAUACUAUAUCAACCUACUACCUCA,0.381 ± 0.06
11,GGAGACCAUACUAUUGUACCUACUACCUCA,0.00746 ± 0.0019
12,GGAGACGAUACUAUAGAACCUAGUACCUCA,0.00875 ± 0.0044
13,GCUCUGGAUACUAUACAACCUACUACGCUCA,1.66 ± 0.1
14,GGAGACCUAUCUAUACAACCUACUACAUCA,1.01 ± 0.072
15,CCUCUGGAUACUAUACAACCUACUAGCACA,0.402 ± 0.069
16,GGACUGGAUACUAUACAUCCUACUACGUCA,0.819 ± 0.054
17,CCUCUGGAUACUAUACAACCUAGAUGGAGA [g9:g30:cont:t1A],0.00573 ± 0.004
18,GGACUGGAUAGUAUACAACCUACUUCCUCA,0.0611 ± 0.015
19,GGAGAGGAUACUAUACAACCUUCUACGUCA,0.102 ± 0.021
20,GCUCUGGAAACUAUACUACCUACUACCUCA,1.68 ± 0.15

row,Sequence,pre-steady-state target cleavage rate
1,CCUCUCGAUACUAUACAACCUACUACCACA,2.21 ± 0.12
2,GGAGACCAUACUAUGACAACCUACUACCUCA,1.12 ± 0.076
3,GGAGACCUUACUAGACAACCUACUACCUCA,1.3 ± 0.1
4,GGAGAGGAUACUUUACAACCAACUACCUCA,0.101 ± 0.0092
5,CCUCUGGAAACUAUACAUCCUACUACCUCA,1.93 ± 0.12
6,GGAGACCUAACUAUACAUCCUACUACCACA,0.449 ± 0.05
7,GCUCUGGAUACUAUACAACCUACUACCUA,1.37 ± 0.1
8,GGACAGGAUACUAUACAAGCUACUACCUCA,1.19 ± 0.055
9,GGUCUGGAUACUAUACAUCCUACUAGCUCA,0.31 ± 0.038
10,GGAGUGGAUACUAUACAACCUAGUACCACA,< 0.0001
11,GGAGACCUAACUAUACAACCUACUACUCA,0.334 ± 0.042
12,GGAGACCUAUGAUAUGAUCCAACUACCUCA,< 0.0001
13,GGAGACGAUACUAUACUACCUUCUACCUCA,0.3 ± 0.021
14,GGAGUCGAUACUAUACAACCUACUUCCUCA,0.244 ± 0.043
15,CCUCUGGAUACAUUACAACCUACUACCUCA,1.61 ± 0.1
16,GGACUGGCUACUAUACAACCUACUACCUCA,1.7 ± 0.12
17,GGAGACCAUACUUUUCAACCUACUACCUCA,0.327 ± 0.044
18,GGAGACCUAUGUAUACAACCUUCUACCUCA,0.0182 ± 0.0029
19,GGAGAGGAUUCUAUACAACCUAGUACCUCA,0.372 ± 0.044
20,GGAGACGAUACUUUACAACCUAGUACCUCA,0.413 ± 0.057

row,Sequence,pre-steady-state target cleavage rate
1,GGACUGGAGUACUAUACAACCUACUACCUCA,1.42 ± 0.11
2,GGUCUGGAUACUAUUCAACCUUCUACCUCA,0.594 ± 0.036
3,GGAGACCUUAGUUUACAACCUACUACCUCA,0.0932 ± 0.032
4,GGAGACCAUACUAUUCAACCUACUACCUCA,1.45 ± 0.12
5,GCUCUGGAUACUAUACAACCUACUACCGUCA,1.09 ± 0.071
6,CCUCUGGAUACUAUACAACCUUCUACGUCA,0.53 ± 0.034
7,GGACUGGAUACUAUAGAACCUAGUACCUCA,0.00611 ± 0.0028
8,GCUCUGGAUACUAUACAUGGUACUACCUCA,0.044 ± 0.0084
9,GGAGUAGGAUACUAUACAACCUACUACCUCA,1.41 ± 0.07
10,GGAGACCAUACUAUACAACCUACUACCUCA [g2:g23:cont:t1A],1.5 ± 0.12
11,GGAGACGAUACUAAUGAACCUACUACCUCA,0.282 ± 0.046
12,GGAGAGGAUAGUAUACAACGUACUACCUCA,0.00683 ± 0.0029
13,GGAGACCUAUGAAUACAACCUACUAGGAGA [g6:g18:cont:t1A],< 0.0001
14,GGAGACCAAACUAUACAACCUACUACCUCA,1.09 ± 0.16
15,GGAGUGGUUACUAUAGAACCUACUACCUCA,1.24 ± 0.08
16,GGAGACCUAACUAUAGAACCUACUACGUCA,0.252 ± 0.049
17,GGAGACCUAUGAAUACAACCUACUACCUCG [g2:g18:cont:t1G],0.00279 ± 0.0027
18,GGAGUGGAUACUAAACAACCUACAACCUCA,0.34 ± 0.036
19,GGAGACCUAUCUAUACAACCUACUAGCCUCA,0.538 ± 0.055
20,CCUCUGGAUACUAUACUACCUACAACCUCA,1.08 ± 0.098
